Test results taken from the supplement of paper PMC8728848.
The list shows a part of the results.

Columns and labels:
Assay in all cases: glycan array binding signal (z-score within array); higher = stronger binding
Settings in all cases: glycan notation: IUPAC condensed, linker removed
[1] = target: Gal(b1-4)GlcNAc(b1-3)Gal(b1-4)GlcNAc(b1-2)[Gal(b1-4)GlcNAc(b1-3)Gal(b1-4)GlcNAc(b1-6)]Man(a1-6)[Gal(b1-4)GlcNAc(b1-3)Gal(b1-4)GlcNAc(b1-2)Man(a1-3)]Man(b1-4)GlcNAc(b1-4)GlcNAc
Outline: (§1)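 Arrays were curated from the Consortium for Functional Glycomics database, 3228 in total, and kept only where the protein sequence was available. Binding is expressed as a within-array Z-score. This score was averaged across arrays of the same protein sequence at different concentrations or buffers and across linkers, and negative values can be read as non-binding.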

[2] = target: Gal(b1-4)GlcNAc(b1-3)Gal(b1-4)GlcNAc(b1-2)[Gal(b1-4)GlcNAc(b1-3)Gal(b1-4)GlcNAc(b1-6)]Man(a1-6)[Gal(b1-4)GlcNAc(b1-3)Gal(b1-4)GlcNAc(b1-2)Man(a1-3)]Man(b1-4)GlcNAc(b1-4)[Fuc(a1-6)]GlcNAc
Outline: as §1

[3] = target: Gal(b1-4)GlcNAc(b1-3)Gal(b1-4)GlcNAc(b1-3)Gal(b1-4)GlcNAc
Outline: as §1

[4] = target: Gal(b1-4)GlcNAc(b1-3)Gal(b1-4)GlcNAc(b1-3)Gal(b1-4)GlcNAc(b1-2)Man(a1-3)[Gal(b1-4)GlcNAc(b1-3)Gal(b1-4)GlcNAc(b1-3)Gal(b1-4)GlcNAc(b1-2)Man(a1-6)]Man(b1-4)GlcNAc(b1-4)GlcNAc
Outline: as §1

[5] = target: Gal(b1-4)GlcNAc(b1-3)Gal(b1-4)GlcNAc(b1-3)Gal(b1-4)GlcNAc(b1-2)Man(a1-3)[Gal(b1-4)GlcNAc(b1-3)Gal(b1-4)GlcNAc(b1-3)Gal(b1-4)GlcNAc(b1-2)Man(a1-6)]Man(b1-4)GlcNAc(b1-4)[Fuc(a1-6)]GlcNAc
Outline: as §1

[6] = target: Gal(b1-4)GlcNAc(b1-3)Gal(b1-4)GlcNAc(b1-3)Gal(b1-4)GlcNAc(b1-2)[Gal(b1-4)GlcNAc(b1-3)Gal(b1-4)GlcNAc(b1-3)Gal(b1-4)GlcNAc(b1-6)]Man(a1-6)[Gal(b1-4)GlcNAc(b1-3)Gal(b1-4)GlcNAc(b1-3)Gal(b1-4)GlcNAc(b1-2)Man(a1-3)]Man(b1-4)GlcNAc(b1-4)[Fuc(a1-6)]GlcNAc
Outline: as §1

[7] = target: Gal(b1-4)GlcNAc(b1-3)Gal(b1-4)GlcNAc(b1-3)Gal(b1-4)GlcNAc(b1-3)Gal(b1-4)GlcNAc(b1-2)Man(a1-3)[Gal(b1-4)GlcNAc(b1-3)Gal(b1-4)GlcNAc(b1-3)Gal(b1-4)GlcNAc(b1-3)Gal(b1-4)GlcNAc(b1-2)Man(a1-6)]Man(b1-4)GlcNAc(b1-4)GlcNAc
Outline: as §1

[8] = target: Gal(b1-4)GlcNAc(b1-3)Gal(b1-4)GlcNAc(b1-3)Gal(b1-4)GlcNAc(b1-3)Gal(b1-4)GlcNAc(b1-2)Man(a1-3)[Gal(b1-4)GlcNAc(b1-3)Gal(b1-4)GlcNAc(b1-3)Gal(b1-4)GlcNAc(b1-3)Gal(b1-4)GlcNAc(b1-2)Man(a1-6)]Man(b1-4)GlcNAc(b1-4)[Fuc(a1-6)]GlcNAc
Outline: as §1

[9] = target: Gal(b1-4)GlcNAc(b1-3)Gal(b1-4)GlcNAc(b1-3)Gal(b1-4)GlcNAc(b1-3)Gal(b1-4)GlcNAc(b1-2)[Gal(b1-4)GlcNAc(b1-3)Gal(b1-4)GlcNAc(b1-3)Gal(b1-4)GlcNAc(b1-3)Gal(b1-4)GlcNAc(b1-6)]Man(a1-6)[Gal(b1-4)GlcNAc(b1-3)Gal(b1-4)GlcNAc(b1-3)Gal(b1-4)GlcNAc(b1-3)Gal(b1-4)GlcNAc(b1-2)Man(a1-3)]Man(b1-4)GlcNAc(b1-4)[Fuc(a1-6)]GlcNAc
Outline: as §1

[10] = target: Gal(b1-4)GlcNAc(b1-3)Gal(b1-4)GlcNAc(b1-3)Gal(b1-4)GlcNAc(b1-3)Gal(b1-4)GlcNAc(b1-3)Gal(b1-4)GlcNAc(b1-2)Man(a1-3)[Gal(b1-4)GlcNAc(b1-3)Gal(b1-4)GlcNAc(b1-3)Gal(b1-4)GlcNAc(b1-3)Gal(b1-4)GlcNAc(b1-3)Gal(b1-4)GlcNAc(b1-2)Man(a1-6)]Man(b1-4)GlcNAc(b1-4)GlcNAc
Outline: as §1

[11] = target: Gal(b1-4)GlcNAc(b1-3)Gal(b1-4)GlcNAc(b1-3)Gal(b1-4)GlcNAc(b1-3)Gal(b1-4)GlcNAc(b1-3)Gal(b1-4)GlcNAc(b1-2)Man(a1-3)[Gal(b1-4)GlcNAc(b1-3)Gal(b1-4)GlcNAc(b1-3)Gal(b1-4)GlcNAc(b1-3)Gal(b1-4)GlcNAc(b1-3)Gal(b1-4)GlcNAc(b1-2)Man(a1-6)]Man(b1-4)GlcNAc(b1-4)[Fuc(a1-6)]GlcNAc
Outline: as §1

[12] = target: Gal(b1-4)GlcNAc(b1-3)Gal(b1-4)GlcNAc(b1-3)Gal(b1-4)GlcNAc(b1-3)Gal(b1-4)GlcNAc(b1-3)Gal(b1-4)GlcNAc(b1-2)[Gal(b1-4)GlcNAc(b1-3)Gal(b1-4)GlcNAc(b1-3)Gal(b1-4)GlcNAc(b1-3)Gal(b1-4)GlcNAc(b1-3)Gal(b1-4)GlcNAc(b1-6)]Man(a1-6)[Gal(b1-4)GlcNAc(b1-3)Gal(b1-4)GlcNAc(b1-3)Gal(b1-4)GlcNAc(b1-3)Gal(b1-4)GlcNAc(b1-3)Gal(b1-4)GlcNAc(b1-2)Man(a1-3)]Man(b1-4)GlcNAc(b1-4)[Fuc(a1-6)]GlcNAc
Outline: as §1

[13] = target: Gal(b1-4)GlcNAc(b1-3)Gal(b1-4)GlcNAc(b1-3)Gal(b1-4)GlcNAc(b1-3)Gal(b1-4)GlcNAc(b1-3)Gal(b1-4)GlcNAc(b1-3)Gal(b1-4)GlcNAc(b1-2)Man(a1-3)[Gal(b1-4)GlcNAc(b1-3)Gal(b1-4)GlcNAc(b1-3)Gal(b1-4)GlcNAc(b1-3)Gal(b1-4)GlcNAc(b1-3)Gal(b1-4)GlcNAc(b1-3)Gal(b1-4)GlcNAc(b1-2)Man(a1-6)]Man(b1-4)GlcNAc(b1-4)GlcNAc
Outline: as §1

[14] = target: Gal(b1-4)GlcNAc(b1-3)Gal(b1-4)GlcNAc(b1-3)GalNAc
Outline: as §1

[15] = target: Gal(b1-4)GlcNAc(b1-3)Gal(b1-4)GlcNAc(b1-3)[Gal(b1-4)GlcNAc(b1-3)Gal(b1-4)GlcNAc(b1-6)]GalNAc
Outline: as §1

[16] = target: Gal(b1-4)GlcNAc(b1-3)Gal(b1-4)GlcNAc(b1-6)[Gal(b1-3)]GalNAc
Outline: as §1

[17] = target: Gal(b1-4)GlcNAc(b1-3)Gal(b1-4)[Fuc(a1-3)]GlcNAc(b1-3)Gal(b1-4)[Fuc(a1-3)]GlcNAc
Outline: as §1

[18] = target: Gal(b1-4)GlcNAc(b1-3)GalNAc
Outline: as §1

[19] = target: Gal(b1-4)GlcNAc(b1-3)[Fuc(a1-3)GlcNAc(b1-6)]Gal(b1-4)Glc
Outline: as §1

[20] = target: Gal(b1-4)GlcNAc(b1-3)[Gal(b1-4)GlcNAc(b1-6)]Gal(b1-4)GlcNAc
Outline: as §1

[21] = target: Gal(b1-4)GlcNAc(b1-3)[GlcNAc(b1-6)]Gal(b1-4)GlcNAc
Outline: as §1

[22] = target: Gal(b1-4)GlcNAc(b1-6)Gal(b1-4)GlcNAc
Outline: as §1

[23] = target: Gal(b1-4)GlcNAc(b1-6)GalNAc
Outline: as §1

[24] = target: Gal(b1-4)GlcNAc(b1-6)[Gal(b1-3)]GalNAc
Outline: as §1

[25] = target: Gal(b1-4)GlcNAc(b1-6)[Gal(b1-4)GlcNAc(b1-3)]GalNAc
Outline: as §1

Gal(b1-4)GlcNAc6P = target: Gal(b1-4)GlcNAc6P
Outline: as §1

Gal(b1-6)Gal = target: Gal(b1-6)Gal
Outline: as §1

Gal3S(b1-3)GalNAc = target: Gal3S(b1-3)GalNAc
Outline: as §1

Gal3S(b1-3)GlcNAc = target: Gal3S(b1-3)GlcNAc
Outline: as §1

[26] = target: Gal3S(b1-3)[Fuc(a1-4)]GlcNAc
Outline: as §1

Gal3S(b1-4)Glc = target: Gal3S(b1-4)Glc
Outline: as §1

Gal3S(b1-4)Glc6S = target: Gal3S(b1-4)Glc6S
Outline: as §1

Gal3S(b1-4)GlcNAc = target: Gal3S(b1-4)GlcNAc
Outline: as §1

[27] = target: Gal3S(b1-4)[Fuc(a1-3)]Glc6S
Outline: as §1

[28] = target: Gal3S(b1-4)[Fuc(a1-3)]GlcNAc
Outline: as §1

[29] = target: Gal3S(b1-4)[Fuc(a1-3)]GlcNAc6S
Outline: as §1

Gal3S4S(b1-4)GlcNAc = target: Gal3S4S(b1-4)GlcNAc
Outline: as §1

Gal3S6S(b1-4)GlcNAc = target: Gal3S6S(b1-4)GlcNAc
Outline: as §1

Gal3S6S(b1-4)GlcNAc6S = target: Gal3S6S(b1-4)GlcNAc6S
Outline: as §1

Gal4S(b1-4)GlcNAc = target: Gal4S(b1-4)GlcNAc
Outline: as §1

Gal4S6S(b1-4)GlcNAc = target: Gal4S6S(b1-4)GlcNAc
Outline: as §1

Gal6P(b1-4)GlcNAc = target: Gal6P(b1-4)GlcNAc
Outline: as §1

Gal6S(b1-3)GlcNAc = target: Gal6S(b1-3)GlcNAc
Outline: as §1

Gal6S(b1-3)GlcNAc6S = target: Gal6S(b1-3)GlcNAc6S
Outline: as §1

Gal6S(b1-4)Glc = target: Gal6S(b1-4)Glc
Outline: as §1

B1: Microvirin-2 (Microcystis aeruginosa) (protein)
chain: MPNFSHTCSSINYDPDSTILSAECQARDGEWLPTELRLSDHIGNIDGELQFGDQNFQETCQDCHLEFGDGEQSVWLVCTCQTMDGEWKSTQILLDSQIDNNDSQLEIGGSMPNFSHTCSSINYDPDSTILSAECQARDGEWLPTELRLSDHIGNIDGELQFGDQNFQETCQDCHLEFGDGEQSVWLVCTCQTMDGEWKSTQILLDSQIDNNDSQLEIG
glycan array binding signal (z-score) [1]: -0.042 | glycan array binding signal (z-score) [2]: -0.104 | glycan array binding signal (z-score) [3]: -0.146 | glycan array binding signal (z-score) [4]: -0.035 | glycan array binding signal (z-score) [5]: -0.085 | glycan array binding signal (z-score) [6]: -0.121 | glycan array binding signal (z-score) [7]: -0.115 | glycan array binding signal (z-score) [8]: -0.093 | glycan array binding signal (z-score) [9]: -0.112 | glycan array binding signal (z-score) [10]: -0.109 | glycan array binding signal (z-score) [11]: -0.087 | glycan array binding signal (z-score) [12]: -0.102 | glycan array binding signal (z-score) [13]: -0.108 | glycan array binding signal (z-score) [14]: 0.024 | glycan array binding signal (z-score) [15]: 0.029 | glycan array binding signal (z-score) [16]: -0.033 | glycan array binding signal (z-score) [17]: -0.114 | glycan array binding signal (z-score) [18]: -0.136 | glycan array binding signal (z-score) [19]: -0.139 | glycan array binding signal (z-score) [20]: -0.133 | glycan array binding signal (z-score) [21]: -0.129 | glycan array binding signal (z-score) [22]: -0.142 | glycan array binding signal (z-score) [23]: -0.133 | glycan array binding signal (z-score) [24]: -0.131 | glycan array binding signal (z-score) [25]: -0.138 | glycan array binding signal (z-score) (Gal(b1-4)GlcNAc6P): -0.139 | glycan array binding signal (z-score) (Gal(b1-6)Gal): -0.123 | glycan array binding signal (z-score) (Gal3S(b1-3)GalNAc): -0.139 | glycan array binding signal (z-score) (Gal3S(b1-3)GlcNAc): -0.138 | glycan array binding signal (z-score) [26]: -0.134 | glycan array binding signal (z-score) (Gal3S(b1-4)Glc): -0.134 | glycan array binding signal (z-score) (Gal3S(b1-4)Glc6S): -0.128 | glycan array binding signal (z-score) (Gal3S(b1-4)GlcNAc): -0.139 | glycan array binding signal (z-score) [27]: -0.122 | glycan array binding signal (z-score) [28]: -0.131 | glycan array binding signal (z-score) [29]: -0.13 | glycan array binding signal (z-score) (Gal3S4S(b1-4)GlcNAc): -0.131 | glycan array binding signal (z-score) (Gal3S6S(b1-4)GlcNAc): -0.134 | glycan array binding signal (z-score) (Gal3S6S(b1-4)GlcNAc6S): -0.12 | glycan array binding signal (z-score) (Gal4S(b1-4)GlcNAc): -0.139 | glycan array binding signal (z-score) (Gal4S6S(b1-4)GlcNAc): -0.143 | glycan array binding signal (z-score) (Gal6P(b1-4)GlcNAc): -0.134 | glycan array binding signal (z-score) (Gal6S(b1-3)GlcNAc): -0.137 | glycan array binding signal (z-score) (Gal6S(b1-3)GlcNAc6S): -0.144 | glycan array binding signal (z-score) (Gal6S(b1-4)Glc): -0.137
